# Laboratory results: patent US7592316B2, “Peptides as NS3-serine protease inhibitors of hepatitis C virus” (Schering Corporation, priority 2000, dated 2009)
# Target: HCV NS3/NS4A protease (strain 1a) (Hepatitis C virus genotype 1a, UniProt P27958)
# Test: biochemical
# Details: Table 5; HCV NS3/NS4A protease, spectrophotometric assay, 30° C., pH 6.5; read-out: Ki* Range
row,Ki,SMILES
1,> 1000 nM,CCCC(NC(=O)[C@@H]1CC(c2ccccc2)CN1C(=O)OC(C)(C)C)C(=O)C(=O)O (some centres unmarked)
2,1 to 100 nM,CC(C)CC(NC(=O)C1[C@H]2[C@@H](CN1C(=O)[C@@H](NC(=O)OC(C)C)C(C)(C)C)C2(C)C)C(=O)C(=O)NCC(=O)N[C@H](C(=O)N(C)C)c1ccccc1 (some centres unmarked)
3,> 1000 nM,C=CCCC(NC(=O)[C@@H]1[C@@H]2[C@H](CN1C(=O)[C@@H](NC(=O)OC(C)(C)C)C(C)C)C2(C)C)C(=O)C(=O)NCC=C (some centres unmarked)
4,1 to 100 nM,CC1(C)[C@@H]2[C@@H](C(=O)NC(CC3CC3)C(=O)C(N)=O)N(C(=O)[C@@H](NC(=O)NC3CCCCC3)C3CCCCC3)C[C@@H]21 (some centres unmarked)
5,1 to 100 nM,C=CCCC(NC(=O)[C@@H]1[C@H]2[C@@H](CN1C(=O)[C@@H](NC(=O)OC(C)(C)C)C1CCC(F)(F)CC1)C2(C)C)C(=O)C(=O)NCCC(=O)OC(C)(C)C (some centres unmarked)
6,1 to 100 nM,CCCC(NC(=O)[C@@H]1[C@H]2[C@@H](CN1C(=O)C(NCCC(C)(C)C)C(C)(C)C)C2(C)C)C(=O)C(=O)NCC(=O)N[C@H](C(=O)N(C)C)c1ccccc1 (some centres unmarked)
7,> 1000 nM,C=CCCC(NC(=O)[C@@H]1[C@@H]2[C@H](CN1C(=O)[C@@H](NC(=O)OC(C)(C)C)C(C)(C)C)C2(C)C)C(=O)C(=O)NCC(=C)CCc1ccccc1 (some centres unmarked)
8,> 1000 nM,COC(=O)C(=O)C(CC1CC1)NC(=O)[C@@H]1[C@H]2[C@@H](CN1C(=O)[C@@H](NC(=O)OC(C)(C)C)C1Cc3ccccc3C1)C2(C)C (some centres unmarked)
9,> 1000 nM,CCCCC(NC(=O)C1C2CCC(C2)N1C(=O)[C@H](NC(=O)OC(C)(C)C)C1CCCCC1)C(=O)C(N)=O (some centres unmarked)
10,101 to 1000 nM,C=CCNC(=O)C(=O)C(CC1CC1)NC(=O)[C@@H]1[C@@H]2[C@H](CN1C(=O)[C@@H](NC(=O)OC(C)(C)C)C1CCC(F)(F)CC1)C2(C)C (some centres unmarked)
11,> 1000 nM,CC(C)(C)OC(=O)N[C@H](C(=O)N1C[C@@H]2[C@H]([C@H]1C(=O)NC(CC1CCCCC1)C(=O)C(N)=O)C2(C)C)C1CCCCC1 (some centres unmarked)
12,1 to 100 nM,CCCCC(NC(=O)C1C2CCC(C2)N1C(=O)C(NC(=O)OC(C)(C)C)C(C)(C)C)C(=O)C(=O)NCC(=O)NC(C(=O)N(C)C)c1ccccc1 (centres unmarked)
13,101 to 1000 nM,CCCC(NC(=O)[C@@H]1C2C(CN1C(=O)[C@@H](NC(=O)NC13CC4CC(CC(C4)C1)C3)C1Cc3ccccc3C1)C2(C)C)C(=O)C(N)=O (some centres unmarked)
14,101 to 1000 nM,CC(C)NC(=O)N[C@H](C(=O)N1C[C@H]2[C@@H]([C@H]1C(=O)NC(CC1CC1)C(=O)C(N)=O)C2(C)C)C(C)(C)C (some centres unmarked) [drawing 1365]
15,101 to 1000 nM,C=CCNC(=O)C(=O)[C@@H](CCC)NC(=O)[C@@H]1[C@@H]2[C@H](CN1C(=O)[C@@H](NC(=O)O[C@H](C)C(C)C)C1CCCCC1)C2(C)C

# Same assay, conditions: Table 6; HCV NS3/NS4A protease, 30° C., pH 6.5; read-out: Ki*
row,Ki,SMILES
1,101 to 1000 nM,C=CCCC(NC(=O)[C@@H]1[C@@H]2[C@H](CN1C(=O)[C@@H](NC(=O)OC(C)(C)C)C(C)(C)C)C2(C)C)C(=O)C(=O)NCCC(=O)N(C)Cc1ccccc1 (some centres unmarked)
2,1 to 100 nM,CCCC(NC(=O)[C@@H]1[C@@H]2[C@H](CN1C(=O)[C@@H](NC(=O)NC(C)(C)C)C(C)(C)C)C2(C)C)C(=O)C(=O)N[C@@H](C)CC(=O)OC(C)(C)C (some centres unmarked)
3,1 to 100 nM,CC(C)(C)NC(=O)N[C@H](C(=O)N1C[C@H]2[C@@H]([C@H]1C(=O)NC(CC1CCC1)C(=O)C(N)=O)C2(Cl)Cl)C1Cc2ccccc2C1 (some centres unmarked)
4,1 to 100 nM,CCCC(NC(=O)[C@@H]1[C@@H]2[C@H](CN1C(=O)[C@@H](NC(=O)NC(C)(C)C)C1CCCCC1)C2(C)C)C(=O)C(=O)NCC(=O)OC(C)(C)c1ccccc1 (some centres unmarked)
5,101 to 1000 nM,Cc1ccc(S(=O)(=O)CNC(=O)C(=O)C(CC2CCC2)NC(=O)[C@@H]2[C@@H]3[C@H](CN2C(=O)[C@@H](NC(=O)NC(C)(C)C)C(C)(C)C)C3(C)C)cc1 (some centres unmarked)
6,101 to 1000 nM,CC(C)(C)NC(=O)N[C@H](C(=O)N1C[C@H]2[C@@H]([C@H]1C(=O)NC(CC1CCC1)C(=O)C(=O)NCCS(=O)(=O)NCC1CC1)C2(C)C)C(C)(C)C (some centres unmarked)

row,SMILES,Ki
1,"CN(C)C(=O)[C@@H](NC(=O)CNC(=O)C(=O)C(CC1CCC1)NC(=O)[C@@H]1[C@@H]2[C@H](CN1C(=O)[C@@H](NC(=O)OC(C)(C)C(F)(F)F)C1CCCCC1)C2(C)C)c1ccccc1 (stereo partly drawn) ({CF3C(Me)2OCO}-[Chg][Pro(3R,4S-CMe2)][X32]G[Phg]-NMe2)",1 to 100 nM
2,"CN(C)C(=O)[C@@H](NC(=O)CNC(=O)C(=O)C(CCCC(F)(F)F)NC(=O)[C@@H]1[C@@H]2[C@H](CN1C(=O)[C@@H](NC(=O)NC(C)(C)C)C(C)(C)C)C2(C)C)c1ccccc1 (stereo partly drawn) ({NHtBu-CO}-[Tle][Pro(3R,4S-CMe2)][X50]G[Phg]-NMe2)",1 to 100 nM

# *1 amine or outer side, *2 acyl side, *3 side chain or, on linkers, in order; H or OH if unused. Where a SMILES comes first, the peptide text is derived from it. [ ]: non-standard residue; d: D form. The star is where a group is joined. Pro(3R,4S-CMe2) = CC1(C)[C@@H]2[C@@H](C(=O)O)NC[C@@H]21; X50 = O=C(C(=O)[*:2])C(CCCC(F)(F)F)N[*:1]; CF3C(Me)2OCO = CC(C)(OC(=O)*)C(F)(F)F; X32 = O=C(C(=O)[*:2])C(CC1CCC1)N[*:1]; Chg = N[C@H](C(=O)O)C1CCCCC1; Phg = N[C@H](C(=O)O)c1ccccc1; Tle = CC(C)(C)[C@H](N)C(=O)O; CO = O=C([*:1])[*:2]; NHtBu = CC(C)(C)N*
